Assay results: PubChem BioAssay AID2528 (National Center for Advancing Translational Sciences (NCATS), 2010)
Values joined by “and” are separate entries in the source; they are usually repeats but may differ in a detail not shown here. Equal values may be shown once. In all, about 350,000 compounds went through this assay and about 700 (0.2%) were called active. Inconclusive results, whose numbers are uncertain, are shown with a selection of clear calls. Calls follow the shape of the dose curve; as a rule, active = well fitted inhibition curve with a large enough effect; inconclusive = small, poorly fitted or top-dose-only effect; inactive = flat fitted curve, though single readings scatter. Potencies of inconclusive entries are doubtful fits and often do not repeat.

target: RecQ-like DNA helicase BLM (Homo sapiens) (UniProt P54132); assay: qHTS Assay for Inhibitors of Bloom's syndrome helicase (BLM); conditions: recombinant BLM DNA unwinding, fluorescence dequenching; series mostly up to 56.1 µM; also: nearly all actives have a fitted effect of over 35% in size;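 as to activity change, negative = inhibition: plate controls were vehicle for no effect and no enzyme for full effect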
From the text: Survival of cells and the faithful propagation of the genome depend on elaborate mechanisms of detecting and repairing DNA damage. Treatment of advanced cancer relies on radiation therapy or chemotherapy, which kill cancer cells by causing extensive DNA damage. It is often found, that cancer cells develop resistance to therapy through enhanced activity of DNA repair functions; this has led to an increased interest in developing drugs that interfere with DNA repair, which could sensitize cancer cells to conventional therapy.
This validation qHTS assay pertains to human BLM, which is important in resolving abnormal DNA structures formed during replication or homologous recombination. Shutting down the expression of BLM leads to chromosomal instability and higher radiation sensitivity in cultured cells.
The validation assay was a fluorescence quenching based kinetic qHTS for BLM Helicase DNA unwinding. The activity was measured as ATP-dependent separation of a 20-bp DNA duplex extended by 30-nt single-stranded tails (forked duplex). The forked DNA substrate was tagged with rhodamine fluorophore (carboxytetramethyl rhodamine, TAMRA) and BHQ-2 (Black Hole Quencher 2) dark quencher. Strand separation results in an increase in the fluorescence of TAMRA (excitation 525 nm, emission 598 nm). This substrate construct operates in a red-shifted region where very few compound library members have been noted to fluoresce (PubChem AIDs 593 and 594). An additional feature of the assay is the inclusion of 2.5 ug/ml poly (dIdC), to reduce interference by compounds such as DNA intercalators, a major source of false inhibitors.
Ian Hickson, University of Oxford
Opher Gileadi, Structural Genomics Consortium, University of Oxford
Screening Center PI: Austin, C.P.
Screening Center: NIH Chemical Genomics Center [NCGC]
Three uL of reaction buffer (25 mM Tris-HCl (pH 8.0), 5 mM NaCl, 2 mM MgCl2, 1mM DTT, 0.01% Tween- 20, and 2.5 ug/ml poly(dI-dC), including enzyme (50 nM BLM), were dispensed into a 1536-well Greiner black assay plate via solenoid-valve based nanoliter dispensers. Compounds (23 nl each in columns 5-48) and control (23 nl each in column 2 as dose-response) were transferred via a Kalypsys pintool equipped with a 1536-pin array. The plates were incubated for 15 min at room temperature, and then 1 ul of substrates (200 nM DNA and 2 mM ATP, final concentrations) was added to start the reaction. The plate was transferred into a ViewLux high-throughput CCD imager where the reaction progress was measured in a discontinuous kinetic mode (two reads spaced 2 hours apart, with intermediate room temperature incubation of the covered assay plate) by using standard red-fluorescence optics (excitation filter 525 nm, emission filter 598 nm). Enzyme-free and vehicle (DMSO) controls were included for signal normalization.
Potency is read from the fitted curve at half-maximal effect; tags tell the direction and shape of the fitted curve.

Chain of UniProt P54132 (P54132 whole entry, looked up): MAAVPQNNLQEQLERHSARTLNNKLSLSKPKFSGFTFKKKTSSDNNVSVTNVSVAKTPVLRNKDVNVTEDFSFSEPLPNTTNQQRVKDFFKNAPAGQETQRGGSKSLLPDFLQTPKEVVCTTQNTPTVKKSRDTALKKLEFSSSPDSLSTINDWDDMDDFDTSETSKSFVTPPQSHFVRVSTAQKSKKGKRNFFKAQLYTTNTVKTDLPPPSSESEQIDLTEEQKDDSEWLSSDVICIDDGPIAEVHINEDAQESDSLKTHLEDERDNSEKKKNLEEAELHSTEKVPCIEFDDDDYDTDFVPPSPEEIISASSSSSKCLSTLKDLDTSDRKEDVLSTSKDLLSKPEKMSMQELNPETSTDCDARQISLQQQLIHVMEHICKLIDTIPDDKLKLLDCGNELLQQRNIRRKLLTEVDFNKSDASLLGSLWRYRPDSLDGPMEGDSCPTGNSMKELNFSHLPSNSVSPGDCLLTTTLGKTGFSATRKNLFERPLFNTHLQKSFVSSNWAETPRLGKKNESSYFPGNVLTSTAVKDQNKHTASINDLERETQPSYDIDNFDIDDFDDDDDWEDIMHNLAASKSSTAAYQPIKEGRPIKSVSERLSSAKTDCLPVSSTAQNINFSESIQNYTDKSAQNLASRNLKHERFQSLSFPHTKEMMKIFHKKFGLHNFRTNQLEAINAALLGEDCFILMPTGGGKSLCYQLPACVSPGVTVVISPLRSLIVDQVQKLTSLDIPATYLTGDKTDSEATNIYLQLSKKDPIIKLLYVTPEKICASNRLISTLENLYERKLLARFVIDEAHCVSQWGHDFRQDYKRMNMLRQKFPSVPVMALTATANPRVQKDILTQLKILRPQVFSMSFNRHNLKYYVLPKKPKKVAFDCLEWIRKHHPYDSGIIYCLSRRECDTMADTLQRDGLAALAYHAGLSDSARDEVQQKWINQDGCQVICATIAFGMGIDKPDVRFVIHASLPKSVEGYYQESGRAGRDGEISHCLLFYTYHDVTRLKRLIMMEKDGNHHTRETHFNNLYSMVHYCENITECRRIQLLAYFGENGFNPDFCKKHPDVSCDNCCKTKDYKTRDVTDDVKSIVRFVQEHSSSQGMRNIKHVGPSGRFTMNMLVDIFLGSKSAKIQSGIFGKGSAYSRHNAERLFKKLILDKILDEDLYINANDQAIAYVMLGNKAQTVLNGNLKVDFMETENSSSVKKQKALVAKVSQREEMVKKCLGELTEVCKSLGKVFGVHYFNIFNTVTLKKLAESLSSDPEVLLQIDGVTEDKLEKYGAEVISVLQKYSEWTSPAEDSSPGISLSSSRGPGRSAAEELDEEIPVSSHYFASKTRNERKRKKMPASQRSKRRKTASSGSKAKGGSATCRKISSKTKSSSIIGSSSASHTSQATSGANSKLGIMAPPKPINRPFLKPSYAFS

SMILES	Potency	activity change, negative = inhibition
Cc1nn(C)c(C)c1N1C(=O)c2cccc3c(N)ccc(c23)C1=O	inactive	–
FC(F)(F)c1cc(Oc2ccccc2)nc(-c2ccccn2)n1	inconclusive: 14.1 µM [inhibitor, partial curve]	–
COc1cccc(C(=O)N2CC(=O)Nc3ccc(C)cc3C2c2ccc(F)cc2)c1OC (stereo unspecified)	inactive	–
COc1cccc(C2CC(c3cccs3)=NN2C(=O)CSc2nc3c(cnn3-c3ccc(F)cc3)c(=O)[nH]2)c1OC (stereo unspecified)	inconclusive: 28.2 µM [inhibitor, single point]	–
COc1ccc(Nc2nc(N)c([N+](=O)[O-])c(NC3CCCCC3)n2)cc1	inconclusive: 31.6 µM [inhibitor, single point]	–
O=c1c(-c2ccc3c(c2)OCCO3)coc2cc(O)cc(O)c12	inconclusive: 39.8 µM [inhibitor, single point]	–
CC(=O)Nc1cc(C(=O)NCc2ccc(F)cc2)ccc1Sc1ccc(C)cc1	inconclusive: 20 µM [inhibitor, single point]	–
O=C(NCCc1ccccc1)c1ccc2c(c1)N(Cc1ccccc1)C(=O)c1ccccc1S2=O (stereo unspecified)	inactive	–
CCN(CC1CCCO1)C(=O)c1cc(COc2cc(C)c(Cl)c(C)c2)on1 (stereo unspecified)	inactive	–
CCC(/C=C1\Sc2ccc(OC)cc2N1CCO)=C\c1sc2ccc(OC)cc2[n+]1CCO	inconclusive: 39.8 µM [inhibitor, single point]	–
N#Cc1c(NC(=O)c2ccc(Br)o2)n(-c2ccccc2)c2nc3ccccc3nc12	inconclusive: 35.5 µM [inhibitor, single point]	–
O=C1OC2(c3cc(I)c(O)c(I)c3Oc3c2cc(I)c(O)c3I)c2c(Cl)c(Cl)c(Cl)c(Cl)c21	active: 12.6 µM	–
CC(C)C[C@H](NC(=O)[C@@H]1CCCN1C(=O)[C@H](Cc1ccccc1)NC(=O)[C@H](C)NC(=O)[C@H](CCC(=O)O)NC(=O)[C@H](C)NC(=O)[C@H](CO)NC(=O)[C@H](CCC(=O)O)NC(=O)[C@H](CC(=O)O)NC(=O)[C@H](CCC(=O)O)NC(=O)[C@H](C)NC(=O)CNC(=O)[C@H](CC(N)=O)NC(=O)[C@@H]1CCCN1C(=O)[C@H](Cc1ccc(O)cc1)NC(=O)[C@@H](NC(=O)[C@H](CCCCN)NC(=O)[C@@H](NC(=O)[C@@H]1CCCN1C(=O)[C@@H](N)CCCNC(=N)N)C(C)C)C(C)C)C(=O)N[C@@H](CCC(=O)O)C(=O)N[C@@H](Cc1ccccc1)C(=O)O	inactive	–
O=C(Nc1ccc(C2=NCCN2)cc1)c1ccc(C(=O)Nc2ccc(C3=NCCN3)cc2)c([N+](=O)[O-])c1	inconclusive: 39.8 µM [inhibitor, single point]	–
O=C(O)c1cccc(Cn2c(Cl)c(/C=N/NC(=O)c3cc4ccccc4cc3O)sc2=O)c1	active: 8.91 µM	–
CN(Cc1ccon1)C(=O)CC1C(=O)NCCN1Cc1ccc(Cl)c(F)c1 (stereo unspecified)	inactive	–
O=C(O)c1ccc(CNCc2cccc(Cl)c2Cl)cc1	inactive	–
COc1ccccc1CNc1ncnc2ccc(-c3ccoc3)cc12	inactive	–
Cc1ccc(C(C(=O)NCc2ccco2)N(CCc2ccccc2)C(=O)Cn2nnc3ccccc32)o1 (stereo unspecified)	inactive	–
Oc1ccc(N=Cc2ccc(-c3cccs3)s2)cc1	inconclusive: 31.6 µM [inhibitor, single point]	–
CCCc1cc2c(=O)c(-c3nc4ccccc4s3)c(COCC(=O)O)oc2cc1O	inconclusive: 44.7 µM [inhibitor, partial curve]	–

SMILES	Potency	activity change, negative = inhibition
Oc1c(Br)cc(/C=N/n2c(-c3ccccc3)n[nH]c2=S)c(Br)c1O	active: 0.794 µM	–
NCCc1cnc[nH]1	inconclusive: 7.08e-05 µM [inhibitor, full curve, poor fit]	–
Oc1ccc(/C=N/N=C/c2ccc(O)c(O)c2)cc1O	inconclusive: 3.16 µM [inhibitor, full curve]	–
N#Cc1c(NC(=O)c2ccccc2Cl)n(Cc2ccccc2)c2nc3ccccc3nc12	active: 14.1 µM	–
Fc1ccccc1CSc1ccc(-c2ccco2)nn1	inconclusive: 35.5 µM [inhibitor, partial curve]	–
COc1cc(/C=N/Nc2nc3ccccc3s2)cc([N+](=O)[O-])c1O	inconclusive: 39.8 µM [inhibitor, single point]	–
Cc1c(NC(=O)c2c(N)sc3c2CCCC3)c(=O)n(-c2ccccc2)n1C	inconclusive: 35.5 µM [inhibitor, partial curve]	–
Cc1nc(NS(=O)(=O)c2ccc(Br)cc2)c2c3c(sc2n1)CCC3	inactive	–
CCOC(=O)C1=C(CSc2nc3c(cc2C#N)CN(C)CC3)OC(N)=C(C#N)C1c1ccncc1 (stereo unspecified)	inconclusive: 25.1 µM [inhibitor, single point]	–
COc1cc(N=Nc2cccc(S(N)(=O)=O)c2)c2ccccc2c1N	active: 3.98 µM	–
CCOc1cc(/C=C2\C(=O)N(c3nc(-c4ccc(Br)cc4)cs3)N=C2c2ccccc2)ccc1O	inconclusive: 31.6 µM [inhibitor, single point]	–
Cc1cc(-c2csc(N)n2)c(C)n1C	inconclusive: 28.2 µM [inhibitor, single point]	–
CCCCn1c(NS(=O)(=O)c2ccccc2)c(S(=O)(=O)c2ccc(C)cc2)c2nc3ccccc3nc21	inconclusive: 31.6 µM [inhibitor, single point]	–
CCOC(=O)c1cc2c(=O)n3ccccc3nc2n(Cc2ccco2)c1=NC(=O)c1ccc(OC)cc1	inconclusive: 3.98 µM [inhibitor, full curve, poor fit]	–
CO[C@@]1(NC(=O)Cc2cccs2)C(=O)N2C(C(=O)O)=C(COC(N)=O)CSC21 (stereo partly specified)	inactive	–
NC(=O)CSc1nc2scc(-c3ccco3)c2c(=O)n1-c1ccccc1	inconclusive: 31.6 µM [inhibitor, single point]	–
CCN(CC)C(=O)CC(c1cc(OC)c(OC)c(OC)c1)c1c(OC)cc(OC)c2c(-c3ccccc3)cc(=O)oc12 (stereo unspecified)	inconclusive: 25.1 µM [inhibitor, single point] and inconclusive: 20 µM [inhibitor, partial curve]	–
Cc1ccccc1/C=C\c1nc2ccccc2c(=O)[nH]1	inconclusive: 14.1 µM [inhibitor, partial curve]	–
C=CC1=C2C=C(C3CC3)N(CCN3CCOCC3)C=C2C(=O)C(C)(OC(=O)c2ccco2)C1=O (stereo unspecified)	–	inactive: -15.1% [at 12.4 µM]
CCOC(=O)C1=C(C)N=c2s/c(=C/c3ccc(OCC(=O)O)cc3)c(=O)n2C1c1ccc(SC)cc1 (stereo unspecified)	inconclusive: 22.4 µM [inhibitor, single point]	–
COc1ccc(NC(=O)CSc2nc(NS(=O)(=O)c3ccccc3)cc(=O)[nH]2)cc1	inconclusive: 31.6 µM [inhibitor, single point]	–

SMILES	Potency	activity change, negative = inhibition
CC1(COc2ccc(C[C@H]3SC(=O)NC3=O)cc2)CCCCC1	inactive	–
COc1ccc(CNC(=O)C2CCC(CNC(=O)[C@@H]3Cc4ccccc4CN3)CC2)cc1 (stereo partly specified)	inconclusive: 2240 µM [inhibitor, partial curve, poor fit]	–
Cc1ccc2c(c1)sc(C)[n+]2CCCS(=O)(=O)[O-]	inactive	–
CN1C=C/C(=C\c2cc[n+](C)c3ccccc23)c2ccccc21	inconclusive: 39.8 µM [inhibitor, single point]	–
O=S(=O)(Nc1c(S(=O)(=O)c2ccccc2)c2nc3ccccc3nc2n1C1CCCCC1)c1ccccc1	active: 10 µM	–
CCc1ccc(C(=O)c2cn(CC(=O)Nc3ccc4c(c3)OCO4)c3cc(OC)c(OC)cc3c2=O)cc1	inconclusive: 25.1 µM [inhibitor, partial curve]	–
CCOc1cc(CNc2ccc(O)cc2)ccc1OCc1ccc(Cl)cc1Cl	inconclusive: 25.1 µM [inhibitor, single point]	–
CN(Cc1c(F)cccc1Cl)C(=O)CCc1c[nH]c2ccccc12	inactive	–
COc1ccc2c(c1)c1c(c(=O)n(Cc3ccccc3)c(=O)n1CC(=O)NCc1ccccc1Cl)n2C	inactive	–
O=C1NC(=Nc2ccc(Cl)cc2)/C(=C/c2ccco2)S1	active: 11.2 µM	–
O=C1NC(=O)C(Cc2cccc(Oc3ccccc3)c2)S1 (stereo unspecified)	inactive	–
COc1ccc2[nH]c(=O)c(CN(Cc3nnnn3Cc3ccco3)C3CCCCC3)cc2c1	inconclusive: 22.4 µM [inhibitor, single point]	–
Cn1cnc2c(=O)oc3ccc(S(=O)(=O)Nc4ccc(F)cc4)cc3c21	inactive	–
Fc1cccc(Cl)c1CSc1ccc(-c2ccco2)nn1	inconclusive: 12.6 µM [inhibitor, partial curve]	–
Cc1cc(C(=O)N/N=C/c2ccc(-c3ccc([N+](=O)[O-])cc3Cl)o2)n[nH]1	inconclusive: 28.2 µM [inhibitor, single point]	–
COc1cc(OC)c2c(O)c3c(c(-c4c5c(c(O)c6c(OC)cc(OC)cc46)CO[C@@H](C)[C@H]5O)c2c1)[C@H](O)[C@H](C)OC3	inconclusive: 31.6 µM [inhibitor, single point]	–
Oc1c(Cl)cc(Cl)c(Cl)c1Cc1c(O)c(Cl)cc(Cl)c1Cl	inconclusive: 39.8 µM [inhibitor, single point] and inconclusive: 35.5 µM [inhibitor, single point]	–
Cc1cc(=O)oc2c3c4c(cc12)OCCN4CCC3	inconclusive: 39.8 µM [inhibitor, single point]	–
COc1ccc(CNCCC(c2ccccc2)c2ccc3c(c2)OCO3)cc1 (stereo unspecified)	inconclusive: 39.8 µM [inhibitor, single point]	–
